# Experimental data taken from PubChem BioAssay AID686978 (National Center for Advancing Translational Sciences (NCATS), 2013).
# Where “and” joins values, the source holds several entries; their conditions need not be identical. Equal entries are not always repeated. In all, about 420,000 compounds went through this assay and about 64,000 (15%) were called active. Inconclusive means that the source gave no clear call. Such entries were picked first, then a sample of the others. The call rests on the fitted dose curve; in most records, active means well fitted inhibition curve with a large enough effect; inconclusive means small, poorly fitted or top-dose-only effect; inactive means flat fitted curve, though single readings scatter. Potencies of inconclusive entries are doubtful fits and often do not repeat.
# Test: qHTS for Inhibitors of human tyrosyl-DNA phosphodiesterase 1 (TDP1): qHTS in cells in absence of CPT; further: nearly all actives have a fitted effect of over 55% in size
# Details: DT40 Tdp1-/- hTDP1 cells, no CPT, ATP luminescence, 48 h; activity change, negative = growth inhibition: at 46.2 µM (top of the series)
# Procedure, shortened: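 Stably hTDP1-transfected Tdp1-null chicken DT40 cells were treated with library compounds minus camptothecin and grown for at least 48 hr at 37 °C, after which cellular ATP was quantified by luminescence.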
# On the % scale 0 is the no-effect control and ±100 the full control effect; potency means the concentration at half of the fitted maximal effect; tags describe the fitted curve by direction and shape.
Structure (SMILES),Potency,"activity change, negative = growth inhibition"
CCCC(CCC)C(=O)Nc1cccc(C(=O)O)c1,inactive,
COC(=O)[C@@]12C[C@@H](CC(=O)NCc3ccc(OC)c(OC)c3)C(=O)N(Cc3ccccc3)C1=CCC(C)(C)C2,"inconclusive: 29.1 µM [inhibitor, single point]",
COCOCCn1cc(CN2CCS(=O)(=O)N(Cc3ccc(-c4cccc(N(C)C)c4)cc3)C(C(C)C)C2=O)nn1 (stereo unspecified),active: 20.6 µM,
c1ccc(-c2ncc(-c3ccn[nH]3)s2)cc1,"inconclusive: 23.1 µM [inhibitor, single point]",
Cc1csc(NC(=O)c2c(-c3c(Cl)cccc3Cl)noc2C)n1,"inconclusive: 32.6 µM [inhibitor, single point]",
Cc1cc(NC(=O)C(C)SCC(=O)Nc2cccc(S(=O)(=O)N3CCCCCC3)c2)no1 (stereo unspecified),"inconclusive: 29.1 µM [inhibitor, single point]",
Cc1nc2cc(C(F)(F)F)ccc2n1CCNc1nc(-c2cc(Cl)c(N)c(Cl)c2)cs1,"inconclusive: 29.1 µM [inhibitor, single point]",
CCOC(=O)C1(c2nc(N)cs2)COC(=O)C1 (stereo unspecified),inactive,
Cc1ccc(NC(=O)CN2CCc3ccccc3C2)cc1S(=O)(=O)N1CCOCC1,"inconclusive: 25.9 µM [inhibitor, single point]",
c1ccc(-c2onc(-c3ccco3)c2-c2ccc3[nH]ccc3c2)cc1,"inconclusive: 35.5 µM [inhibitor, partial curve, poor fit] and inconclusive: 25.9 µM [inhibitor, single point]",
COC(=O)[C@H]1C[C@@]2(O)CN(S(=O)(=O)c3ccc(C)cc3)C[C@@]2(OC(=O)NCc2ccccc2F)C[C@H]1C(=O)OC,"inconclusive: 29.1 µM [inhibitor, single point]",
CCOC(=O)C1=CCC(c2cccn2C(=O)OC(C)(C)C)N(S(=O)(=O)c2ccc(C)cc2)C1 (stereo unspecified),"inconclusive: 16.4 µM [inhibitor, single point]",
O=[N+]([O-])c1ccc2nc(-[n+]3c(-c4ccccc4)cc(-c4ccccc4)cc3-c3ccccc3)[nH]c2c1,active: 20.6 µM,
COc1ccccc1CN1C(=O)C(Cc2ccccc2)ON=C1c1ncccc1C (stereo unspecified),"inconclusive: 29.1 µM [inhibitor, single point]",
O=C(C1CCCO1)N1CCN(C(=S)Nc2cccc(Cl)c2)CC1 (stereo unspecified),inactive,
COc1ccc(O)c(CN2CCCC(N3CCN(c4ccc(F)cc4)CC3)C2)c1 (stereo unspecified),"inconclusive: 18.4 µM [inhibitor, single point]",
O=C(c1cc(COc2c(F)cccc2F)on1)N1CCN(C2CCCCC2)C(=O)C1,"inconclusive: 16.4 µM [inhibitor, single point]",
N/C(=N\OC(=O)c1ccc2ccccc2c1)c1ccccn1,,inconclusive: -33.7% [inhibitor]
Cc1ccc(Nc2c(-c3ccc(N(C)C)cc3)nc3nc[nH]n23)cc1,"inconclusive: 18.4 µM [inhibitor, single point]",
CCOC(=O)Cn1c(C)cc(=O)c2ccccc21,inactive,
CSc1ccc(CCNC(=O)CCc2nnc3ccc(N4CCOCC4)nn23)cc1,inactive,
O=C(NCc1ccco1)/C(=C/C=C\c1ccccc1)NC(=O)c1ccc(Br)o1,"inconclusive: 23.1 µM [inhibitor, single point]",

Structure (SMILES),Potency,"activity change, negative = growth inhibition"
CCN1CCN(c2cc3c(nn2)Oc2ccccc2N3C)CC1,"inconclusive: 13 µM [inhibitor, partial curve]",
COc1cc(NC(=O)COc2ccc(-n3cnnn3)cc2)cc(OC)c1OC,"inconclusive: 20.6 µM [inhibitor, single point]",
COC(=O)c1ccc(C(=O)NC2CCCc3c2cnn3-c2ccc(C)c(C)c2)cc1 (stereo unspecified),active: 1.03 µM,
CC(=O)OCC(=O)[C@H]1CC[C@H]2[C@@H]3CCC4=CC(=O)CC[C@]4(C)[C@H]3CC[C@]12C,"inconclusive: 23.1 µM [inhibitor, single point]",
CC(C)C[C@H](NC(=O)c1nc[nH]c1C(=O)N[C@@H](CCCCN)C(=O)OC(C)(C)C)C(=O)OC(C)(C)C,"inconclusive: 23.1 µM [inhibitor, single point]",
CN(C)c1ccc(/C=N/NC(=O)c2ccccn2)cc1,"inconclusive: 9.2 µM [inhibitor, partial curve]",
COc1ccc(NC(=O)c2oc3ccccc3c2NC(=O)C2CCCO2)cc1OC (stereo unspecified),active: 18.4 µM,
COc1ccc(C(C)NC(=O)CCc2ccccc2)cc1 (stereo unspecified),inactive,
CCOc1cc(C2C(C(=O)c3ccc(C)cc3)=C(C(=O)OC)Nc3nnnn32)ccc1O (stereo unspecified),"inconclusive: 29.1 µM [inhibitor, single point]",
CC(OC(=O)c1ccc2c(c1)OCO2)C(=O)NC1CCCCC1 (stereo unspecified),"inconclusive: 32.6 µM [inhibitor, single point]",
Cc1ccc(S(=O)(=O)NCCC(=O)NCCN2CCCCCC2)cc1,"inconclusive: 0.184 µM [inhibitor, full curve]",
CCc1ccc(-c2cc(C)no2)cc1S(=O)(=O)N1CCN(c2ccc(OC)cc2)CC1,"inconclusive: 29.1 µM [inhibitor, single point]",
Cn1nccc1-c1ccc(C(=O)NCc2ccco2)c2occc12,"inconclusive: 4.11 µM [inhibitor, full curve, poor fit]",
O=C(NCCCN1CCOCC1)C1Cc2c(ccc3ccccc23)O1 (stereo unspecified),"inconclusive: 0.731 µM [inhibitor, full curve, poor fit]",
Cc1ccc(CN2CCN(Cc3ccccc3C(F)(F)F)CC2)cc1,"inconclusive: 14.6 µM [inhibitor, partial curve]",
CCn1c(SCC(=O)N2CCCc3ccccc32)nnc1-c1c[nH]c2ccccc12,"inconclusive: 23.1 µM [inhibitor, partial curve]",
Cc1ccccc1C(=O)Nc1cccc(-c2ccc(N3CCOCC3)nn2)c1,"inconclusive: 29.1 µM [inhibitor, single point]",
COc1ccc(/C=C(/NC(=O)c2ccccc2)c2nc3ccccc3[nH]2)cc1OC,"inconclusive: 29.1 µM [inhibitor, single point]",
O=C(Nc1nc(OCC(F)(F)F)cnc1/C=C\c1ccccc1)c1ccccc1,"inconclusive: 29.1 µM [inhibitor, single point]",
COc1cccc(-c2nn3c(=O)cc(CN4CCN(S(=O)(=O)c5ccc(C)cc5)CC4)nc3s2)c1,inactive,
Cc1ccc2nc3c(cc2c1)c(NC(=O)C1CCCO1)nn3CC(C)C (stereo unspecified),"inconclusive: 29.1 µM [inhibitor, single point]",
CC(=O)Nc1nc(-c2ccc(-c3ccccc3)cc2)cs1,inactive,

Structure (SMILES),Potency,"activity change, negative = growth inhibition"
O=C(NCC1CC1)c1onc(CSc2ccccc2)c1C(=O)NCC1CC1,active: 20.6 µM,
O=c1oc2c(O)cccc2cc1-c1nc2ccccc2[nH]1,"inconclusive: 18.4 µM [inhibitor, partial curve]",
Cc1ccc(C(O)c2nc3ccccc3n2C)cc1 (stereo unspecified),"inconclusive: 18.4 µM [inhibitor, single point]",
COc1cc(C2CC(=O)Nc3c2c(C)nn3-c2nc(C)cc(C)n2)cc(OC)c1O (stereo unspecified),inactive,
CCC1(CC)NC(=O)N(CC(=O)Nc2ccc(S(=O)(=O)N3CCOCC3)cc2)C1=O,inactive,
CN(Cc1ccccc1F)C(=O)CCNC(=O)c1ccc(C(C)(C)C)cc1,"inconclusive: 16.4 µM [inhibitor, partial curve, poor fit]",
CN(C(=O)Cc1csc(-c2ccccc2)n1)c1c(N)n(Cc2ccccc2)c(=O)[nH]c1=O,inactive,
O=C(CSc1ccc(F)cc1)N1CCC(c2nc3ccccc3s2)CC1,"inconclusive: 29.1 µM [inhibitor, single point]",
CC1Cc2nc(SCC(=O)Nc3ccc4c(c3)OCO4)n(CCc3ccccc3)c(=O)c2S1 (stereo unspecified),"inconclusive: 25.9 µM [inhibitor, single point]",
OCCCNc1ncnc2[nH]ncc12,inactive,
C#CCSc1nnc(-c2cccc3ccccc23)o1,inactive,
O=c1[nH]c(C2CCN(S(=O)(=O)c3ccc(C(F)(F)F)cc3)CC2)nc2c1nnn2Cc1ccccc1,"inconclusive: 29.1 µM [inhibitor, single point]",
O=C(COC(=O)/C=C/c1cccc(Cl)c1)Nc1ccc(N2CCOCC2)cc1,"inconclusive: 18.4 µM [inhibitor, single point]",
CSc1nc(=O)c2c(n1C)NC(=O)CC2c1ccccc1OC(C)C (stereo unspecified),"inconclusive: 23.1 µM [inhibitor, single point]",
COc1ccc(-c2cc(=O)c3ccccc3o2)cc1OC,active: 14.6 µM,
COc1ccc(CCNC(=S)NCc2ccc(Cl)c(Cl)c2)cc1OC,"inconclusive: 29.1 µM [inhibitor, single point]",
CCN1C(=O)/C(=C/C=C2/SCCN2C)SC1=S,active: 13 µM,
CN(C)Cc1c(O)ccc2c(-c3ccccc3)cc(=O)oc12,"inconclusive: 20.6 µM [inhibitor, single point]",
CCOC(=O)C1CCCN(c2c(NCCCN(CC)c3cccc(C)c3)c(=O)c2=O)C1 (stereo unspecified),"inconclusive: 23.1 µM [inhibitor, partial curve, poor fit]",
CCc1ccc2c(c1)c(=O)c(S(=O)(=O)c1ccc(Cl)cc1)cn2CC,"inconclusive: 29.1 µM [inhibitor, single point]",
Cc1ncc2c(c1CNC(=O)c1ccc3c(c1)OCO3)CCN(C(=O)/C=C/c1ccccc1Cl)C2,inactive,
Cc1nn(Cc2ccc(Cl)c(Cl)c2)c(C)c1NC(=O)c1noc2c1CCc1ccccc1-2,active: 5.8 µM,
